Not every detail of the peptide structures is certain; ends, links or a residue may be inferred. Starred links: 1 amine or outer side, 2 acyl side, 3 side chain; linkers in the order of their positions; H or OH if unused. Non-standard residues stand in square brackets, D forms with d. Residues, ends and D or L forms follow the SMILES beside them. *: point of attachment. dAla(cis-4-NHCOPyz-cHex) = N[C@H](C[C@H]1CC[C@@H](NC(=O)c2cnccn2)CC1)C(=O)O; X4 = O=C(N[C@H]1CC[C@@H](C[C@@H](N[*:1])C(=O)[*:2])CC1)c1cccnc1; X2 = O=C(N[C@H]1CC[C@@H](C[C@H](N[*:1])C(=O)[*:2])CC1)c1cnccn1; dPhe(4-Cl) = N[C@H](Cc1ccc(Cl)cc1)C(=O)O; X10 = O=C([C@@H](Cc1cnccn1)N[*:1])[*:2]; d2Nal = N[C@H](Cc1ccc2ccccc2c1)C(=O)O; X11 = O=C([C@H](N[*:1])c1ccsc1)[*:2]; Lys(iPr) = CC(C)NCCCC[C@H](N)C(=O)O; Orn(iPr) = CC(C)NCCC[C@H](N)C(=O)O; Benzoyl(4-OH) = O=C(c1ccc(O)cc1)*; Pyrazinecarbonyl = O=C(c1cnccn1)*; d3Pal = N[C@H](Cc1cccnc1)C(=O)O; Cit = NC(=O)NCCC[C@H](N)C(=O)O; Nicotinoyl = O=C(c1cccnc1)*; Picolinoyl = O=C(c1ccccn1)*; Abu = CC[C@H](N)C(=O)O
What was measured:
[1] = tested on: rat mast cells; experiment: in vitro histamine release test; format: cell-based; conditions: rat mast cells, ± SEM
Protocol: The antiovulatory activity, AOA, in rats was determined as described by Humphries et al. (12). Antiovulation assays were performed by counting, on estrus, the number of ova shed by 4-day cycling rats after a single sc injection of the LH-RH analogue in corn oil was administered between 12 and 12:30 p.m. on […]. The control rats received 0.3 mL of the vehicle. The wheal test was performed by intradermally injecting 10 ug of peptide in 100 ul of saline into anaesthesized rats, measuring the ideally circular wheal response and calculating the area. The in vitro histamine release test was done as described by Karten et al. (4). A suspension of rat mast cells was added to increasing concentrations of peptide and the mixture was incubated for a few minutes followed by centrifugation to collect the histamine in the supernatant. A PIPES (piperazine-N,N'-bis[2-ethanesulfonic acid]) medium buffered at pH 7.4 containing NaCl 119 mM, KCl 5 mM, PIPES 25 mM, NaOH 40 mM, glucose 5.6 mM, CaCl2 1 mM, and 0.1% bovine serum albumin was used. This was designated as PIPES AC. Peptides were dissolved in double distilled H2 O at a concentration of 2 mg/ml and stored at -20° C. They were thawed just prior to testing, diluted in PIPES AC and prewarmed for five minutes at 37° C. Peptides studied were stable to heating at 56° C. for two hours, and to freezing and thawing.
Peritoneal cells were collected from male Sprague-Dawley rats weighing 200 to 250 gm and purchased from Harlan (Madison, Wis.). After euthanasia by CO2, the peritoneal cavity was washed with 50 ml PIPES AC medium containing 20 units of heparin. Following centrifugation at 200×g for eight minutes at 4° C., cells were washed again and finally resuspended to a concentration of 8 to 24×10^5 total leukocytes/ml in PIPES AC. This suspension contained approximately 5-10% mast cells. Washed cells were used immediately after collection and were prewarmed for five minutes at 37° C. prior to pipetting 0.25 ml aliquots into 12×75 mm polystyrene tubes containing 0.25 ml of diluted peptide. Mixtures were incubated for 15 minutes at 37° C. and the reaction stopped by centrifugation at 400×g for 15 minutes at 4° C. The cell supernatants were assayed for histamine content by the automated fluorometric assay procedure. See, Siraganian, R. P., "An automated continuous flow system for the extraction and fluorometric analysis of histamine." Anal. Biochem. 57:383 (1974); and Siraganian, R. P. and Hook, W. A., "Histamine release and assay methods for the study of human allergy," In Manual of Clinical Immunology, 3rd ed., N. R. Rose, H. Friedman, and J. L. Fahey (Eds.), Amer. Soc. for Microbiology, Washington (1986) p. 808.

[2] = tested on: 26 days old female rats; experiment: oral activity: serum LH and FSH after agonist [D-Qal^6]-LHRH; format: in vivo, rat; conditions: -2 hrs, agonist 15 ng sc, +2 hrs
Protocol: For the determination of duration of action, the antagonist was administered s.c. or orally to 26 days old female rats at a specific time before administration of the agonist, [D-Qal^6 ]-LHRH. The serum levels of rat luteinizing hormone (LH) and rat follicle stimulating hormone (FSH) were then measured 2 hours after the agonist administration by RIA. The oral administration was done through force-feeding with feeding tubes.

[3] = tested on: 4-day cycling rats; experiment: antiovulatory activity (AOA) in rats, single sc injection; format: in vivo, rat; conditions: Table III; 0.25 μg sc
[4] = oral 30 μg in 10 mM HOAC:Water (1:1)
[5] = oral 100 μg in 10 mM HOAC:Water (1:1)
[6] = oral 300 μg in 10 mM HOAC:Water (1:1)

SMILES | AOA/μg 0.25 [3] | further results
CC(=O)N[C@H](Cc1ccc2ccccc2c1)C(=O)N[C@H](Cc1ccc(Cl)cc1)C(=O)N[C@H](Cc1cccnc1)C(=O)N[C@@H](CO)C(=O)N[C@@H](Cc1ccc(O)cc1)C(=O)N[C@H](CCCCNC(=O)c1cccnc1)C(=O)N[C@@H](CC(C)C)C(=O)N[C@@H](CCCNC(=N)N)C(=O)N1CCC[C@H]1C(=O)N[C@H](C)C(N)=O [IBR 22396] (Ac-[d2Nal][dPhe(4-Cl)][d3Pal]SY[dK](Nicotinoyl)LRP[dA]-NH2) | – | In Vitro Histamine Release ED50 ([1]; listed as No. 1): 39.2 ± 7 µg/mL
CC(=O)N[C@H](Cc1ccc2ccccc2c1)C(=O)N[C@H](Cc1ccc(Cl)cc1)C(=O)N[C@H](Cc1cccnc1)C(=O)N[C@@H](CO)C(=O)N[C@@H](CCCNC(=N)N)C(=O)N[C@H](CCCCNC(=O)c1cccnc1)C(=O)N[C@@H](CC(C)C)C(=O)N[C@@H](CCCCNC(C)C)C(=O)N1CCC[C@H]1C(=O)N[C@H](C)C(N)=O [IBR 25335] (Ac-[d2Nal][dPhe(4-Cl)][d3Pal]SR[dK](Nicotinoyl)L[Lys(iPr)]P[dA]-NH2) | – | In Vitro Histamine Release ED50 ([1]; listed as No. 10): 4.3 ± 0.52 µg/mL
CC(=O)N[C@H](Cc1ccc2ccccc2c1)C(=O)N[C@H](Cc1ccc(Cl)cc1)C(=O)N[C@H](Cc1cccnc1)C(=O)N[C@@H](CO)C(=O)N[C@@H](CCCCNC(=O)c1cccnc1)C(=O)N[C@H](CCCCNC(=O)c1cnccn1)C(=O)N[C@@H](CC(C)C)C(=O)N[C@@H](CCCCNC(C)C)C(=O)N1CCC[C@H]1C(=O)N[C@H](C)C(N)=O [IBR 25649] (Ac-[d2Nal][dPhe(4-Cl)][d3Pal]SK(Nicotinoyl)[dK](Pyrazinecarbonyl)L[Lys(iPr)]P[dA]-NH2) | – | FSH [2, 4]: 2438 ± 207 ng/mL; LH [2, 4]: 75 ± 9 ng/mL; FSH [2, 5]: 845 ± 149 ng/mL; LH [2, 5]: 19 ± 3 ng/mL; FSH [2, 6]: 431 ± 22 ng/mL; LH [2, 6]: 6 ± 1.4 ng/mL
CC(=O)N[C@H](Cc1ccc2ccccc2c1)C(=O)N[C@H](Cc1ccc(Cl)cc1)C(=O)N[C@H](Cc1cccnc1)C(=O)N[C@@H](CO)C(=O)N[C@@H](CCCCNC(=O)c1cccnc1)C(=O)N[C@H](C[C@H]1CC[C@@H](NC(=O)c2cccnc2)CC1)C(=O)N[C@@H](CC(C)C)C(=O)N[C@@H](CCCCNC(C)C)C(=O)N1CCC[C@H]1C(=O)N[C@H](C)C(N)=O [compound 25648] (Ac-[d2Nal][dPhe(4-Cl)][d3Pal]SK(Nicotinoyl)[X4]L[Lys(iPr)]P[dA]-NH2) | – | In Vitro Histamine Release ED50 [1]: 37 ± 1.1 µg/mL
CC(=O)N[C@H](Cc1ccc2ccccc2c1)C(=O)N[C@H](Cc1ccc(Cl)cc1)C(=O)N[C@@H](C(=O)N[C@@H](CO)C(=O)N[C@@H](CCCCNC(=O)c1ccccn1)C(=O)N[C@H](C[C@H]1CC[C@@H](NC(=O)c2cnccn2)CC1)C(=O)N[C@@H](CC(C)C)C(=O)N[C@@H](CCCCNC(C)C)C(=O)N1CCC[C@H]1C(=O)N[C@H](C)C(N)=O)c1ccsc1 [compound 26349] (Ac-[d2Nal][dPhe(4-Cl)][X11]SK(Picolinoyl)[dAla(cis-4-NHCOPyz-cHex)]L[Lys(iPr)]P[dA]-NH2) | 0 | –
CC(=O)N[C@H](Cc1ccc2ccccc2c1)C(=O)N[C@H](Cc1ccc(Cl)cc1)C(=O)N[C@H](Cc1cccnc1)C(=O)N[C@@H](CO)C(=O)N[C@@H](Cc1ccc(O)cc1)C(=O)N[C@H](CCCCNC(=O)c1ccccn1)C(=O)N[C@@H](CC(C)C)C(=O)N[C@@H](CCCNC(C)C)C(=O)N1CCC[C@H]1C(=O)N[C@H](C)C(N)=O [compound 26363] (Ac-[d2Nal][dPhe(4-Cl)][d3Pal]SY[dK](Picolinoyl)L[Orn(iPr)]P[dA]-NH2) | 0 | –
CC(=O)N[C@H](Cc1ccc2ccccc2c1)C(=O)N[C@H](Cc1cccnc1)C(=O)N[C@H](Cc1ccc(Cl)cc1)C(=O)N[C@@H](CO)C(=O)N[C@@H](CCCCNC(=O)c1ccccn1)C(=O)N[C@H](CCCCNC(=O)c1ccccn1)C(=O)N[C@@H](CC(C)C)C(=O)N[C@@H](CCCNC(C)C)C(=O)N1CCC[C@H]1C(=O)N[C@H](C)C(N)=O [compound 26364] (Ac-[d2Nal][d3Pal][dPhe(4-Cl)]SK(Picolinoyl)[dK](Picolinoyl)L[Orn(iPr)]P[dA]-NH2) | 12 | –
CC(=O)N[C@H](Cc1ccc2ccccc2c1)C(=O)N[C@H](Cc1ccc(Cl)cc1)C(=O)N[C@H](Cc1cccnc1)C(=O)N[C@@H](CO)C(=O)N[C@@H](Cc1ccc(O)cc1)C(=O)N[C@H](C[C@H]1CC[C@@H](NC(=O)c2cnccn2)CC1)C(=O)N[C@@H](CC(C)C)C(=O)N[C@@H](CCCCNC(C)C)C(=O)N1CCC[C@H]1C(=O)N[C@H](CO)C(N)=O [compound 26365] (Ac-[d2Nal][dPhe(4-Cl)][d3Pal]SY[dAla(cis-4-NHCOPyz-cHex)]L[Lys(iPr)]P[dS]-NH2) | 0 | –
CC(=O)N[C@H](Cc1ccc2ccccc2c1)C(=O)N[C@H](Cc1ccc(Cl)cc1)C(=O)N[C@H](Cc1cccnc1)C(=O)N[C@@H](CO)C(=O)N[C@@H](CCCCNC(=O)c1ccccn1)C(=O)N[C@H](C[C@H]1CC[C@@H](NC(=O)c2cnccn2)CC1)C(=O)N[C@@H](Cc1ccccc1)C(=O)N[C@@H](CCCCNC(C)C)C(=O)N1CCC[C@H]1C(=O)N[C@H](C)C(N)=O [compound 26366] (Ac-[d2Nal][dPhe(4-Cl)][d3Pal]SK(Picolinoyl)[dAla(cis-4-NHCOPyz-cHex)]F[Lys(iPr)]P[dA]-NH2) | 0 | –
CC[C@H](NC(=O)[C@@H](CCCCNC(=O)c1ccccn1)NC(=O)[C@H](CCCCNC(=O)c1ccc(O)cc1)NC(=O)[C@H](CO)NC(=O)[C@@H](Cc1cccnc1)NC(=O)[C@@H](Cc1ccc(Cl)cc1)NC(=O)[C@@H](Cc1ccc2ccccc2c1)NC(C)=O)C(=O)N[C@@H](CCCCNC(C)C)C(=O)N1CCC[C@H]1C(=O)N[C@H](C)C(N)=O [compound 26381] (Ac-[d2Nal][dPhe(4-Cl)][d3Pal]SK(Benzoyl(4-OH))[dK](Picolinoyl)[Abu][Lys(iPr)]P[dA]-NH2) | 11 | –
CC[C@H](NC(=O)[C@@H](CCCCNC(=O)c1ccccn1)NC(=O)[C@H](CCCNC(N)=O)NC(=O)[C@H](CO)NC(=O)[C@@H](Cc1cccnc1)NC(=O)[C@@H](Cc1ccc(Cl)cc1)NC(=O)[C@@H](Cc1ccc2ccccc2c1)NC(C)=O)C(=O)N[C@@H](CCCCNC(C)C)C(=O)N1CCC[C@H]1C(=O)N[C@H](C)C(N)=O [compound 26382] (Ac-[d2Nal][dPhe(4-Cl)][d3Pal]S[Cit][dK](Picolinoyl)[Abu][Lys(iPr)]P[dA]-NH2) | 11 | –
CCNC(=O)[C@@H]1CCCN1C(=O)[C@H](CCCCNC(C)C)NC(=O)[C@H](CC(C)C)NC(=O)[C@@H](C[C@H]1CC[C@@H](NC(=O)c2cnccn2)CC1)NC(=O)[C@H](CCCCNC(=O)c1ccccn1)NC(=O)[C@H](CO)NC(=O)[C@@H](Cc1cccnc1)NC(=O)[C@@H](Cc1ccc(Cl)cc1)NC(=O)[C@@H](Cc1ccc2ccccc2c1)NC(C)=O [compound 26383] (Ac-[d2Nal][dPhe(4-Cl)][d3Pal]SK(Picolinoyl)[dAla(cis-4-NHCOPyz-cHex)]L[Lys(iPr)]P-NHEt) | 25 | –
CC(=O)N[C@H](Cc1ccc2ccccc2c1)C(=O)N[C@H](Cc1ccc(Cl)cc1)C(=O)N[C@H](Cc1cccnc1)C(=O)N[C@@H](CO)C(=O)N[C@@H](C[C@H]1CC[C@@H](NC(=O)c2cnccn2)CC1)C(=O)N[C@H](Cc1cnccn1)C(=O)N[C@@H](CC(C)C)C(=O)N[C@@H](CCCNC(=N)N)C(=O)N1CCC[C@H]1C(=O)N[C@H](C)C(N)=O [compound 26417] (Ac-[d2Nal][dPhe(4-Cl)][d3Pal]S[X2][X10]LRP[dA]-NH2) | 22 | –
CC(=O)N[C@H](Cc1ccc2ccccc2c1)C(=O)N[C@H](Cc1ccc(Cl)cc1)C(=O)N[C@H](Cc1cccnc1)C(=O)N[C@@H](CO)C(=O)N[C@@H](Cc1ccc(O)cc1)C(=O)N[C@H](C[C@H]1CC[C@@H](NC(=O)c2cnccn2)CC1)C(=O)N[C@@H](CC(C)C)C(=O)N[C@@H](CCCCNC(C)C)C(=O)N1CCC[C@H]1C(=O)N[C@H](C)C(N)=O [compound 26418] (Ac-[d2Nal][dPhe(4-Cl)][d3Pal]SY[dAla(cis-4-NHCOPyz-cHex)]L[Lys(iPr)]P[dA]-NH2) | 22 | –

From patent publication US5763404A, “Methods for using LHRH antagonists with low histamine release” (priority 1995, dated 1998)
